Measurements taken from publication PMC12136788.
This is one part of the list.

T1: UNK ZnF1-6 (called full-length) (human, UniProt Q9C0B0 30-357)
T1 sequence: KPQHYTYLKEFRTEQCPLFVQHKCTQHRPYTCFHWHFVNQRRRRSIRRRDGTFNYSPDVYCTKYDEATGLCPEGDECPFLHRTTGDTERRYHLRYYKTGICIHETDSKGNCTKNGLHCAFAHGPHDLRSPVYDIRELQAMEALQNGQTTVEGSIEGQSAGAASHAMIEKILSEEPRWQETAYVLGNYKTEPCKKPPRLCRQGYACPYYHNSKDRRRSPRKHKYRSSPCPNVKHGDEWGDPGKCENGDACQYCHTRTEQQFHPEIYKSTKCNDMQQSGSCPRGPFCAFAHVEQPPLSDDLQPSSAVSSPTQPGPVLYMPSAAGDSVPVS

B1: chr4:55870735:55870847:+|CDS|ENSG00000090989|unk|total|mutant (ssRNA)
RNA: GGGAGUUCUACAGUCCGACGAUCGGCAUCUGAAAAACAAGUCAACAUCCUGAUGAAAUUGCCCGAUGAGGCUCUAAAGGAGGCCGAUCAGAUUGAAUUGAAACUGAGCAGUUAUGAGGAAAUGCUCCAAAGUGUAAAAGAACACAACAGAGGAUUGAGCAUCA
B2: chr20:37404728:37404829:+|3pUTR|ENSG00000197122|msi1|total|mutant (ssRNA)
RNA: GGGAGUUCUACAGUCCGACGAUCGGCCUCUGCAACUGCUCAGCUCUGGUCCAGGCCCUGUGGCAGGACACACAUGGUGAGCCCCGCCCUGGGACAUCAGGAGACUGGGCUCUGGCUCUGUUCGGCCUUUGGGUGUGUGGUGGACAACAGAGGAUUGAGCAUCA
B3: chr6:134965076:134965177:-|3pUTR|ENSG00000112339|unk|total|mutant (ssRNA)
RNA: GGGAGUUCUACAGUCCGACGAUCAAAGGAACAAUGUGCAAUUGAUAUGUUUUCCGAUGAGAGAGAAAAAUUAAAGCUAAAAUCCGCUGCAAAGAAGUAUUAAUAAUCACCUCUGCAAAAAUUCUAAGUUGCCAACUGGCAAAGCAACAGAGGAUUGAGCAUCA
B4: ENSG00000107863:be:win_801|CDS|ENSG00000107863|bound_else_gene|NA|bound_elsewhere_windowed (ssRNA)
RNA: GGGAGUUCUACAGUCCGACGAUCCAAUGAAAGUGUAAGGACUGUCAUUGUGCCUUCUGAGAAGGUUGUAGAUUUGUUAUCCAAUAGAAACAACCAUACAGGUCCUUCACAUAGAACUGAAGAAGUGAGGUAUGGCGUGAGUGACAACAGAGGAUUGAGCAUCA
B5: ENSG00000198589:be:win_451|CDS|ENSG00000198589|bound_else_gene|NA|bound_elsewhere_windowed (ssRNA)
RNA: GGGAGUUCUACAGUCCGACGAUCCUUUUGGUUGACAUGUUGGGAGUGCUGGCUAGCUAUAAUUUGACAGUUCGCGAGCUAAAGCUUUUCUUCAGUAAACUUCAAGGAGAUAAAGGACGAUGGCCUCCACAUGCUGGGAAGUUGCAACAGAGGAUUGAGCAUCA
B6: chr3:179334266:179334377:+|CDS|ENSG00000121864|unk|FALSE|unique (ssRNA)
RNA: GGGAGUUCUACAGUCCGACGAUCUUAUUUAUGUCAAUAUUGUGAAUAUUCAACAGGACAAAUUGAAGAUCUUAAAAUUCAUCUAGAUUUCAAGCAUUCAGCUGACUUGCCUCAUAAAUGUAGUGACUGCUUGAUGAGGUUUGGCAACAGAGGAUUGAGCAUCA

What follows are binders tested against T1, UNK ZnF1-6 (called full-length) (assay: nsRBNS (natural sequence RNA bind-n-seq); RBNS binding buffer (assumed for nsRBNS): 25 mM Tris pH 7.5, 150 mM KCl, 3 mM MgCl2, 0.01% Triton X-100, 500 ug/ml BSA, 20 U/ml SUPERase-In, 4 C; UNK is unkempt and MSI1 is Musashi-1; names of the RNAs are library labels; protein concentration not given here; high values mean tight binding).
With B1 the binding signal was 0.423 enrichment R.
B2 showed a binding signal of 0.588 enrichment R.
For B3, the binding signal was 0.378 enrichment R.
B4 gave a binding signal of 0.626 enrichment R.
In the case of B5, the binding signal is reported as 0.475 enrichment R.
B6 was tested, and the binding signal was 0.519 enrichment R.
